# The campaign covered roughly 410,000 compounds. About 530 (0.13%) were called active. The inconclusive results got no clear call from the source; some entries with a clear call stand among them for comparison. Calls follow the shape of the dose curve; as a rule, active = well fitted inhibition curve with a large enough effect; inconclusive = small, poorly fitted or top-dose-only effect, or another doubt; inactive = no such curve, though single readings can be large or run the other way. Where the call is inconclusive, the potency comes from a doubtful curve fit.
# Assay: qHTS of GLP-1 Receptor Inverse Agonists: Cytotox Screen
# Conditions: HEK293 cAMP-luciferase reporter cells, luminescence, 24 h; activity change, negative = inhibition: at 38.3 µM (top of the series) unless noted
# In short: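 To flag toxic compounds, the library was rerun on cells for 24 hr at 37 deg C and 5% CO2. Viability-linked luminescence was captured 12 min after adding luciferase detection reagent.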
# % is scaled to controls: 0 for no effect and ±100 for the full control effect; potency is read from the fitted curve at half-maximal effect.
Structure (SMILES),Potency,"activity change, negative = inhibition"
CCOC(=O)c1cnn(-c2ccc(NS(=O)(=O)c3ccc(Cl)cc3)cc2)c1C(F)(F)F,"inconclusive: 28.2 µM [inhibitor, single point]",
COc1ccc(CCNS(=O)(=O)CCNC(=O)c2ccccc2)cc1,inactive,
Cn1ncc([N+](=O)[O-])c1C(=O)Nc1ccc(Cl)cc1,"inconclusive: 7.08 µM [inhibitor, partial curve, poor fit]",
COc1ccc(N2CCN(S(=O)(=O)c3ccc4c(c3)CCCN4C(C)=O)CC2)cc1,inactive,
Cc1[nH]n(-c2ccccc2)c(=O)c1N=Nc1nccs1,"inconclusive: 11.2 µM [inhibitor, partial curve, poor fit]",
CCOc1ccc(CNC(=S)N/N=C/c2cccnc2)cc1,"inconclusive: 22.4 µM [inhibitor, single point]",
CCN1CCN(CCCNC(=O)c2ccc3c(c2)NC(=O)/C(=C\c2cccc(C)c2)S3)CC1,"inconclusive: 22.4 µM [inhibitor, single point]",
COc1cc(CNC2CCCC2)cc(Cl)c1OCc1ccccc1F,"inconclusive: 11.2 µM [inhibitor, partial curve, poor fit]",
O=C(NCc1ccc2c(c1)OCO2)c1nc(S(=O)(=O)Cc2ccccc2F)ncc1Cl,"inconclusive: 10 µM [inhibitor, single point]",
O=C1c2ccccc2OC2(C=Cc3ccccc3O2)N1Cc1ccccc1 (centres undefined),,inconclusive: -31.8% [inhibitor]
CC(=O)Oc1ccc(N(C(C)=O)S(=O)(=O)c2ccc3ccccc3c2)cc1Br,"inconclusive: 3.55 µM [inhibitor, full curve, poor fit]",
CC(=O)c1ccc(NC(=O)C(C)n2nc(-c3ccccc3)c3cc(Cl)ccc32)cc1 (centres undefined),inactive,
CCN(CC)CCCC1(CN)OCCc2ccccc21 (centres undefined),"inconclusive: 7.08 µM [inhibitor, partial curve, poor fit]",
Cc1cccc(NC(=O)c2c(C)cc(C)nc2SCC(=O)Nc2c(C)cc(C)cc2C)c1,"inconclusive: 10 µM [inhibitor, single point]",
Cc1c(C#N)c(N)nc(Cl)c1C#N,"inconclusive: 28.2 µM [inhibitor, single point]",
Cc1c(CC(=O)N2CCCCC2)c(=O)oc2cc3occ(C(C)(C)C)c3cc12,inactive,
COc1ccc(-c2cn3cccnc3n2)cc1NC(=O)COc1ccccc1,inactive,
Cn1ccc2c(-c3cccc(C=O)c3)cc3c(c21)C1CCC3C1 (centres undefined),inactive,
COc1ccc(Br)cc1CN1CCCC(C(=O)N2CCCCC2)C1 (centres undefined),inactive,
CCOc1ccc(NC(=O)NC2CCS(=O)(=O)C2)cc1 (centres undefined),"inconclusive: 1.58 µM [inhibitor, partial curve, poor fit]",
CN(CC(=O)Nc1cccc(F)c1)C(=O)c1cc(-c2ccccc2)nc2ccccc12,"inconclusive: 22.4 µM [inhibitor, single point]",
CC(=O)N1c2ccccc2NC2=C(C(=O)CCC2)C1c1ccc(F)cc1 (centres undefined),"inconclusive: 5.62 µM [inhibitor, partial curve, poor fit]",

Structure (SMILES),Potency,"activity change, negative = inhibition"
O=C(NNC(=O)c1cc(-c2ccccc2)nn1-c1ccccc1)c1ccccc1,"inconclusive: 10 µM [inhibitor, partial curve, poor fit]",
COc1ccc(NC(=O)CCC(=O)Nc2cc(OC)c(NC(=O)c3cccs3)cc2OC)cc1,"inconclusive: 12.6 µM [inhibitor, single point]",
COc1cccc(/C=C/C(=O)OCC(=O)Nc2cccc(S(=O)(=O)N3CCCCC3)c2)c1OC,inactive,
CN(C(=O)CSc1nc2ccc(NC(=O)c3ccccc3F)cc2s1)c1ccccc1,inactive,
CCOc1ccc2nc(N3CCC(C(=O)Nc4nnc(CC)s4)CC3)sc2c1,"inconclusive: 3.55 µM [inhibitor, partial curve, poor fit]",
Cc1cccc(N2CCN(CCNC(=O)c3cc4c(s3)CS(=O)(=O)C4)CC2)c1C,"inconclusive: 31.6 µM [inhibitor, partial curve, poor fit]",
CCN(CC)S(=O)(=O)c1ccc(C)c(NC(=O)CSc2nc3ccc(C)cc3[nH]2)c1,"inconclusive: 7.94 µM [inhibitor, partial curve]",
CCOC(=O)c1ccc(NC(=S)N(CCCN2CCCCCC2)Cc2ccco2)cc1,"inconclusive: 28.2 µM [inhibitor, single point]",
CCOC1=C2CN(S(=O)(=O)c3ccc(C)cc3)[C@H](c3cccc4ccccc34)C[C@H]2C(C#N)(C#N)C(C#N)(C#N)C1,"inconclusive: 28.2 µM [inhibitor, single point]",
Fc1ccc(Sc2nc(-c3ccccc3)nnc2C(F)(F)F)cc1,inactive,
CCOC(=O)c1cccc(NC(=O)c2ccc(NC(=O)c3ccco3)cc2)c1,"inconclusive: 7.94 µM [inhibitor, partial curve, poor fit]",
CN(C)c1ccc(N=Nc2nc3ccccc3n2C)cc1,active: 5.01 µM,
C=C(C)CNC(=S)NNC(=O)CCn1c2ccccc2c2ccccc21,"inconclusive: 12.6 µM [inhibitor, single point]",
C=CCc1ccc(OCC(O)COc2ccc(CC=C)cc2OC)c(OC)c1,"inconclusive: 12.6 µM [inhibitor, single point]",
CCCN1Cc2cccc(C(=O)Nc3ccc(CN4CCCC4)cc3)c2C1=O,"inconclusive: 11.2 µM [inhibitor, single point]",
CCOc1ccc(N2C(=O)CC(Sc3nnnn3-c3ccccc3)C2=O)cc1 (centres undefined),"inconclusive: 28.2 µM [inhibitor, single point]",
COCc1cc(S(=O)c2ccc(Cl)cc2)nc(C)n1 (centres undefined),"inconclusive: 11.2 µM [inhibitor, single point]",
Cc1nc(NC2=NCN(CCCN3CCOCC3)CN2)nc2c(C)cccc12,"inconclusive: 10 µM [inhibitor, partial curve, poor fit]",
CC(C)c1ccccc1NC(=S)NC1CCCCC1,"inconclusive: 28.2 µM [inhibitor, single point]",
C[C@H](CO)N1C[C@H](C)[C@@H](CN(C)Cc2ccc(Cl)c(Cl)c2)Oc2c(NC(=O)c3ccncc3)cccc2C1=O,"inconclusive: 0.501 µM [inhibitor, full curve, poor fit]",
CC(C)(C)c1ccc(NC(=S)NCCc2ccccn2)cc1,"inconclusive: 28.2 µM [inhibitor, single point]",
CC1=NOC(=O)/C1=C\c1ccc(-c2ccc(Cl)cc2Cl)o1,"inconclusive: 11.2 µM [inhibitor, single point]",

Structure (SMILES),Potency,"activity change, negative = inhibition"
O=[N+]([O-])c1ccc(/C=N/Nc2ccc3ccccc3c2)o1,"inconclusive: 3.55 µM [inhibitor, partial curve, poor fit]",
CCOC(=O)c1c(C)c(C(=O)Nc2cc(OC)ccc2OC)c(C)n1CC,"inconclusive: 3.16 µM [inhibitor, full curve, poor fit]",
COc1ccccc1CNc1nc(NCCOc2ccccc2)c2sccc2n1,"inconclusive: 28.2 µM [inhibitor, single point]",
C=CC[C@H](CC(=O)N(CCO)Cc1ccccc1)C(=O)N[C@@H](COC(=O)[C@@H](CC=C)Cc1ccc(F)cc1)Cc1c[nH]c2ccccc12,"inconclusive: 28.2 µM [inhibitor, single point]",
CCOc1ccc(S(=O)(=O)Nc2ccccc2C(=O)N/N=C/c2c(OC)ccc3ccccc23)cc1,inactive,
CCn1ncc(/C=N\NC(=O)c2cc(-c3ccc(C)cc3C)nc3ccccc23)c1C,"inconclusive: 12.6 µM [inhibitor, partial curve, poor fit]",
O=c1c2ccccc2sc2c(CO)ccc(NCCN3CCCCC3)c12,active: 7.94 µM,
CCOC(=O)C(=Cc1ccccc1)C(=O)c1ccccc1,"inconclusive: 11.2 µM [inhibitor, single point]",
O=C(O)c1ccc(/C=N/Nc2ncc(Cl)cc2Cl)cc1,"inconclusive: 8.91 µM [inhibitor, single point]",
CC(C)CC(N)c1csc(NC(=O)Nc2ccccc2C(C)C)n1 (centres undefined),"inconclusive: 12.6 µM [inhibitor, single point]",
O=C(Nc1cccc(NC(=O)c2cncc(Br)c2)c1)c1cncc(Br)c1,"inconclusive: 31.6 µM [inhibitor, partial curve, poor fit]",
CC(C)Cn1c(=O)c(C(=O)Nc2ccccc2S(N)(=O)=O)c(O)c2ccccc21,"inconclusive: 28.2 µM [inhibitor, single point]",
CC(NC(=S)NCCCN1CCOCC1)C1CC2CCC1C2 (centres undefined),"inconclusive: 28.2 µM [inhibitor, single point]",
Cc1ccc(S(=O)(=O)N2CCCC(c3nc(-c4ccc(C)o4)no3)C2)cc1 (centres undefined),"inconclusive: 31.6 µM [inhibitor, single point]",
Cc1cc(S(=O)(=O)c2ccc([N+](=O)[O-])cn2)ccc1Br,"inconclusive: 2.24 µM [inhibitor, full curve, poor fit]",
COc1ccc(/C=C2/N=C(SC)NC2=O)cc1OC,"inconclusive: 28.2 µM [inhibitor, single point]",
CN(C(=O)Cn1c(=O)n(CCC(=O)NCc2ccc3c(c2)OCO3)c(=O)c2sccc21)c1ccccc1,inactive,
CC1CCN(CC(O)CN2c3ccccc3Sc3ccccc32)CC1 (centres undefined),"inconclusive: 28.2 µM [inhibitor, single point]",
Cc1cc(N2CCC(C)CC2)nc(-n2nc(C)cc2C)n1,active: 0.794 µM,
Nc1nc(N)c(N=Nc2ccc(S(N)(=O)=O)cc2)c(=O)[nH]1,"inconclusive: 28.2 µM [inhibitor, single point]",
